PMC4336329 (PLoS ONE, 2015)
The whole screen tested about 310,000 compounds, of which about 2,200 (0.71%) showed an effect of 50% or more. Effects have a minus sign here. This is one part of the list.

What follows are molecules tested against human ether-à-go-go-related gene (hERG) potassium channel (human, UniProt Q12809) (assay: primary screen, population patch clamp on CHO cells stably expressing hERG).
Chain of human ether-à-go-go-related gene (hERG) potassium channel (Q12809 whole entry, looked up): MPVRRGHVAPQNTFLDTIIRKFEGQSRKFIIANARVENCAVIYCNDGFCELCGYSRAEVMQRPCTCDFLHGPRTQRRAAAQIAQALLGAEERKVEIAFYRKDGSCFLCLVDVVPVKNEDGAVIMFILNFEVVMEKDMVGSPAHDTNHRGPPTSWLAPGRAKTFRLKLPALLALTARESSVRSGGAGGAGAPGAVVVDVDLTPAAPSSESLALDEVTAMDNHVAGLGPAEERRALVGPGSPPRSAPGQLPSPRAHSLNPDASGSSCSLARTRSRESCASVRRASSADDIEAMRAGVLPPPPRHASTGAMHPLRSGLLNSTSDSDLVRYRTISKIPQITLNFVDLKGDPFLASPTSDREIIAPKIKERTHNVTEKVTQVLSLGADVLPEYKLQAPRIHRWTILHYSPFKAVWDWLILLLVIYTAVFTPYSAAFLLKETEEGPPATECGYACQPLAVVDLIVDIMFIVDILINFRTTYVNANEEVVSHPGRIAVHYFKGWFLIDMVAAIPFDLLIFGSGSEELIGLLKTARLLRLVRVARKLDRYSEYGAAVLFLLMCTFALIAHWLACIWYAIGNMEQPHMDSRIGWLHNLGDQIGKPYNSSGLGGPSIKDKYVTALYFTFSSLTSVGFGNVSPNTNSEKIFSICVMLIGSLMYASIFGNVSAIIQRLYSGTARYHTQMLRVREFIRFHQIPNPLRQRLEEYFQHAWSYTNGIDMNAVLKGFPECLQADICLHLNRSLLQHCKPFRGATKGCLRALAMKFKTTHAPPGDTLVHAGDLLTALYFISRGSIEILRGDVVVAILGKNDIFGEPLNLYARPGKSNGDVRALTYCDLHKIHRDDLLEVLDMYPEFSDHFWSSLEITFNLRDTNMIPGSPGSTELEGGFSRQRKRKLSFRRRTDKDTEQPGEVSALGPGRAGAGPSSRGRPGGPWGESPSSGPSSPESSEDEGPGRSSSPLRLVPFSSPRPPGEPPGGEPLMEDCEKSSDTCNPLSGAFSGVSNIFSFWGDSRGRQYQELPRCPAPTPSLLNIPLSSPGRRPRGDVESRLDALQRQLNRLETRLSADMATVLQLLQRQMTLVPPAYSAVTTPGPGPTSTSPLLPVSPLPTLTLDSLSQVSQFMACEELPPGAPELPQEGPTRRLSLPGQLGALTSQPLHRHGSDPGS

Compound | hERG current change (%, negative = inhibition) at 1uM [%]
CCc1cc(C(=O)Nc2cc(S(=O)(=O)N(C)C)ccc2C)sc1C | -2.22
O=C(NNC(=O)c1cc(Br)c(Br)s1)c1ccncc1 | 5.26
CCCOc1ccc(CC(=O)N/N=C\c2ccc(F)cc2)cc1 | 9.41
Cc1ccc(-n2nc(C)c3onc(C)c3c2=O)cc1 | 11.8
O=C(c1ccc(Cl)cc1)N1CCCC(C(=O)N2CCN(c3ccccc3)CC2)C1 (stereo not drawn) | -12.2
COc1ccc(NC(=O)CSc2nnc(C3CCCCC3)n2N)cc1OC | 30.2
COc1cccc(Nc2nc(-c3cccs3)nc3ccccc23)c1 | 5.54
CC(=O)Oc1ccc(/C=C(\NC(=O)c2ccco2)C(=O)NCc2ccco2)cc1 | -11
Cc1ccc(S(=O)(=O)NCCCn2ccnc2)cc1C(=O)NC(C)C | 13.1
O=C(NCc1ccccc1)NC12CC3CC(CC(C3)C1)C2 | 7.64
Cc1ccc(S(=O)(=O)N2CCOC23CCN(C(=O)c2cc(Cl)ccc2Cl)CC3)cc1 | 4.66
CCCCCCn1nc(C(=O)N(CC(C)C)c2c(N)n(CCCC)c(=O)[nH]c2=O)c2ccccc2c1=O | 6.49
O=C(NNS(=O)(=O)c1ccc(F)cc1)c1ccccc1O | 13.6
O=c1c(Cl)c(N/N=C/c2ccc(Cl)cc2)cnn1-c1ccccc1 | 3.1
COc1ccc(C(=O)Nc2cc(Cl)ccc2C(=O)O)cc1 | 15.3
CC(C)Cn1c(SCC(=O)Nc2cc(Cl)c(Cl)cc2Cl)nc(O)cc1=O | 6.48
O=C(COC(=O)/C=C/c1ccco1)NCc1ccccc1Cl | 12.9
O=C(NCc1ccccc1)c1onc(CSc2ccccc2)c1C(=O)NCC1CC1 | -7.12
Cc1occc1-c1nnc(SCc2nnc(-c3ccc(Cl)cc3)o2)n1C | -10.9
COc1ccccc1NC(=O)CSCc1cc(=O)n2ccsc2n1 | 13.4
COc1ccc(C)cc1NC(=O)c1ccc(OC(F)F)cc1 | 7.38
COC(=O)c1cc(C(=O)Nc2ccc(Cl)cn2)cc([N+](=O)[O-])c1 | 4.96
COc1ccccc1CN1CC(=O)N2CSC[C@H]2C1=O | 8.7
CCOc1ccc(C(=O)NCC(=O)N2CCCC2)cc1 | 6.73
COCCn1nnnc1C(c1ccccn1)N1CCN(c2cc(C)ccc2C)CC1.Cl (stereo not drawn) | 9.25
O=C1CC(=C2c3ccccc3-c3ccccc32)C(=O)N1CCN1CCN(c2cccc(Cl)c2)CC1 | 7.4
C/C(=N\NC(=O)c1ccc(NS(=O)(=O)c2cccs2)cc1)c1ccc(C(C)(C)C)cc1 | 7.57

Compound | hERG current change (%, negative = inhibition) at 1uM [%]
CN1CCN(C(=O)c2cnn(-c3ccccc3)c2NC(=O)c2ccccc2Br)CC1 | 15.2
Cc1ccc(C(c2ccc(C)o2)c2cccc([N+](=O)[O-])c2O)o1 | 1.45
Cc1ccc(OC(C)C(=O)Nc2ccc3c(c2)n(C)c(=O)n3C)cc1C (stereo not drawn) | 11.4
COc1ccccc1CNC(=O)Cc1ccccc1 | 8.24
CC12COC3(P(=O)(c4ccccc4)c4ccccc4)CC1CCC23CP(=O)(c1ccccc1)c1ccccc1 (stereo not drawn) | 7.74
Cc1cc(=O)[nH]c(SCC(=O)N2CCN(C(c3ccccc3)c3ccccc3)CC2)n1 | 2.8
CC(=O)c1ccc(Nc2nc(NCCO)nc(OC(C(F)(F)F)C(F)(F)F)n2)cc1 | 3.66
O=C(NCCCN1CCOCC1)c1ccc2c(c1)N(Cc1cccc(F)c1)C(=O)c1ccccc1S2 | 18.9
COc1ccc(OC)c(/C=C2/Sc3ccccc3C2=O)c1 | 14.4
CCc1cc2c(=O)c(-c3nc4ccccc4n3C)coc2c(CN2CCN(C)CC2)c1O | -1.89
Br.COc1ccc2c(c1)[C@]13CCCC[C@@H]1[C@H](C2)N(C)CC3.O | 12.8
CCOc1cc(/C=N/NC(N)=O)cc(Br)c1OCC(=O)Nc1cccc2ccccc12 | 14.3
O=C(CSc1ncnc2c1oc1ccccc12)Nc1ccccc1F | 16.4
CC(C)c1ccc(S(=O)(=O)NCc2ccc3c(c2)OCO3)cc1 | 11.5
COC(=O)COc1ccc(S(=O)(=O)Nc2ccc(C(N)=O)cc2)cc1Cl | 19.9
Cc1cc(/C=C(\C#N)C(=O)Nc2ccccc2F)c(C)[nH]1 | 22.7
COc1ccc(/C=N/Nc2nc3ccccc3o2)cc1O | 6.35
NS(=O)(=O)c1cccnc1Nc1cccc(Cl)c1 | 10.5
CSc1nc(-c2ccccc2)cc(C(F)(F)F)c1C#N | -0.616
CSc1ccc(C(=O)C2CCCN(Cc3cccn3-c3cccnc3)C2)cc1 (stereo not drawn) | 6.9
CCC(C)(C)NC(=O)c1ccc2c(c1)S(=O)(=O)c1ccccc1C2=O | 1.48
CCc1ccc2c(c1)Sc1ccccc1CC2N1CCN(C)CC1.CS(=O)(=O)O.O (stereo not drawn) | 2.55
COc1ccc(C2/C=C\CN(C(=O)c3ccccc3)[C@H](Cc3ccccc3)C(=O)N2Cc2ccc(F)cc2)cc1 (stereo partly drawn) | 13.4
CC(=O)NC12CC3CC(C)(C1)CC(NC(C)=O)(C3)C2 | -1.85
O=C(NCc1ccc(F)cc1)C1CCCN1C(=O)Nc1ccc(F)cc1 (stereo not drawn) | 14.3
Cc1ccc(NC(=O)CN(C)C(=O)COc2cc(F)ccc2[N+](=O)[O-])cc1 | 18
CC(C)(C)C(=O)Nc1ccc(-c2cc3cc(Cl)ccc3o2)cc1 | 14.1
